Some of the results follow.
What follows are compounds tested on T1, C. trachomatis L2/434/Bu expressing GFP (CTL2-GFP). Details: total inclusion area; 28.5 h, 10 µM; inhibitor.
T1 construct: L2/434/Bu GFP intracellular growth in HeLa cells
Design: species or system HeLa; C. trachomatis total inclusion area by high-content imaging, normalised to DMSO
Method in brief: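 Following bulk GFP and resorufin fluorescence reads, infected cells were fixed, Hoechst-stained and imaged on a high-content platform. Inclusion total area and number per well served as growth proxies; nuclei counts indicated host viability. MICs were derived as for the fluorescence assay.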

Row | Compound | % of control remaining
1 | CC(C)N1CCC[C@H]1c1nc(-c2ccc(N3CCN(C)CC3)nc2)no1 [CBK288881] | 123.126
2 | CCn1nc(-c2ccc(C)o2)nc1CC1NC(=O)c2ccccc21 (centres unmarked) [CBK306834] | 80.6956
3 | Cc1csc2ncc(C(=O)Nc3ccccc3F)c(=O)n12 [CBK287455] | 88.1471
4 | COc1cccc(NC(=O)CSc2nnc(-c3ccccc3O)n2-c2ccccc2)c1 [CBK268343] | 86.8894
5 | CCC(C)NC(=O)C1(Cc2ccc(-c3cc(F)ccc3OC)cc2)CCOCC1 (centres unmarked) [CBK285539] | 116.885
6 | O=C(NCCN1CCOCC1)C1CCCN(c2nc3c(-c4ccccc4)csc3c(=O)[nH]2)C1 (centres unmarked) [CBK215509] | 99.1094
7 | CN(Cc1ccsc1)C(=O)c1cccc(S(=O)(=O)NC(C)(C)C)c1 [CBK305425] | 46.7523
8 | Cc1noc(C(C)C)c1C(=O)NC1CCCN(c2ccn(C)n2)C1=O (centres unmarked) [CBK306356] | 44.0018
9 | Cc1cc(C)c2c(OCC(=O)NC(C)C)nn(C)c2n1 [CBK306393] | 78.7623
10 | CN1CCN(CC2(CNC(=O)c3ccc(C(=O)O)cc3)CC2)CC1 [CBK307517] | 67.1963
11 | O=C(O)COc1ccccc1/C=N/NC(=O)Cc1ccc(Br)c2ccccc12 [CBK263116] | 83.0488
12 | CCc1nn(CC(=O)NC2CC2)c(=O)c2cc3ccsc3n12 [CBK284128] | 87.8128
13 | CC(=O)N[C@@H](CC(C)C)C(=O)Nc1cc(C)nc2ccccc12 [CBK116265] | 103.987
14 | CCOc1ncccc1NC(=O)Cc1cccc(OC)c1 [CBK256406] | 130.693
15 | Cn1ncc2c1CCCC2NC(=O)NCc1ccc(C#N)cc1F (centres unmarked) [CBK305193] | 83.1865
16 | CN(C)C(=O)C1CN(C(=O)C(C)(C)c2ccccc2F)C1 [CBK281970] | 103.715
17 | COc1cccc(CNc2nccnc2-c2ccsc2)c1OC [CBK037543] | 62.4317
18 | CC(CNc1cc(=O)n2ccccc2n1)CN1CCCC1 (centres unmarked) [CBK305270] | 70.2347
19 | Cc1cc(C)cc(NC(=O)c2ccccc2NS(=O)(=O)c2ccc(F)c(F)c2F)c1 [CBK113886] | 84.4128
20 | CSCCC(NC=C1C(=O)CC(C)(C)CC1=O)C(=O)O (centres unmarked) [CBK261311] | 94.4096
21 | O=C(/C=C/c1cccc([N+](=O)[O-])c1)NC(=S)Nc1ccc(-c2nc3ncccc3o2)cc1 [CBK264391] | 104.977
22 | Oc1nccc(Oc2ccnc(Cl)n2)n1 [CBK000010] | 97.7483
23 | CCCc1n[nH]c(=S)n1CC(=O)NCc1ccc(N2CC(C)OC(C)C2)nc1 (centres unmarked) [CBK297741] | 97.4822
24 | COc1ccc2[nH]cc(CCNC(=O)COc3ccc(O)cc3)c2c1 [CBK116227] | 101.099
25 | O=C(O)CCSc1nc2ccccc2[nH]1 [CBK262056] | 96.9683
26 | COc1ccc(-c2cnn(-c3ccccc3CN(C)C)n2)cc1 [CBK112762] | 80.6016
27 | CCc1nc2ccccc2n1CC(=O)N(C)C(C)c1cccnc1 (centres unmarked) [CBK304017] | 84.1447

Row | Compound | % of control remaining
28 | CC(=O)Nc1ccc(OCC(O)Cn2ncc3ccccc3c2=O)cc1 (centres unmarked) [CBK305567] | 34.3515
29 | Cc1nn2c(-c3ccc(NC(=O)c4cccs4)cc3)nnc2c2ccccc12 [CBK267134] | 82.9342
30 | CC(C)CN(CC(C)C)C(=O)Cn1cc([N+](=O)[O-])cc(C(N)=O)c1=O [CBK297784] | 112.449
31 | CC(C)C(=O)N1CC2(CCN(Cc3ccc(Cl)c(Cl)c3)CC2)c2ccccc21 [CBK126715] | 89.3208
32 | O=C(Cc1cccc(F)c1)N1CCC(O)(c2ccccn2)CC1 [CBK283586] | 127.215
33 | O=C(O)CCN1CCN(S(=O)(=O)c2ccccc2)CC1 [CBK269402] | 114.542
34 | COc1ccc(C2(C(=O)N[C@H]3CC[C@H](O)CC3)CC2)cc1 [CBK149840] | 98.2273
35 | O=C(c1c(F)cc(-c2cncc(-c3ccc(O)cc3)n2)cc1F)N1CCOCC1 [CBK131973] | 102.578
36 | COc1ccc(S(=O)(=O)N(C)CC(=O)O)cc1C [CBK267176] | 77.345
37 | CSc1nnc(CC2CCN(C(=O)c3cccc(N)c3)CC2)n1C [CBK307339] | 116.016
38 | CN(C)C(=O)C1(Cc2ccccc2-c2cccs2)CCN(C(=O)Cc2ccccc2)CC1 [CBK285687] | 93.2586
39 | CCCN(C(C)C(=O)N(C)C)S(=O)(=O)c1ccc(Cl)cc1 (centres unmarked) [CBK016123] | 44.6649
40 | Cc1cccc(OCc2nc3c4c5c(sc4ncn3n2)CCCCC5)c1C [CBK265284] | 103.639
41 | Nc1n[nH]c(CCCc2nc(N)n[nH]2)n1 [CBK261016] | 93.3293
42 | O=C(CC(CN1CCN(CCO)CC1)C(=O)O)Nc1ccccc1F (centres unmarked) [CBK286790] | 99.2731
43 | O=C(O)c1cc(NCc2cccc(F)c2F)n[nH]1 [CBK287006] | 111.784
44 | COc1ccc(-c2cc(N3CCC(N4CCCCC4)CC3)ncn2)cc1OC [CBK037752] | 88.9816
45 | CCC(=O)N1CCCC(c2nnc(-c3cccs3)o2)C1 (centres unmarked) [CBK283060] | 94.0307
46 | O=C(Nc1cccc(C(=O)O)c1)Nc1cccc(-c2ccccc2)c1 [CBK155451G] | 65.8906
47 | Cc1nnc(O)c2c(C)n(-c3ccc(Br)cc3)nc12 [CBK008726] | 15.2228
48 | Cc1cccc2c1CC(=O)NC21CCN(CC(=O)c2ccc(F)cc2)CC1 [CBK039946] | 104.56
49 | O=C(CSc1nc2ccccc2c(=O)n1Cc1ccccc1)c1ccc(Br)cc1 [CBK262700] | 102.259
50 | CC(=O)N1CCC(N[C@H]2C[C@@H](Cc3cc(CN4CCCCC4)on3)C2(C)C)CC1 [CBK289699] | 113.777
51 | O=C(O)C1CC1(C(=O)O)C(=O)O (centres unmarked) [CBK261009] | 92.9868
52 | COc1ccc(-c2nnc(SCC(=O)c3ccccc3)o2)cc1 [CBK069390] | 93.2394
53 | CCOC(=O)N1CCC(NC(=O)N2CCCC(C(=O)N(CC)CC)C2)CC1 (centres unmarked) [CBK156159] | 84.7324
54 | Cc1cccc(C)c1-c1cn2ccnc2c(N2CCN(c3ccccn3)CC2)n1 [CBK037389] | 60.4123

Row | Compound | % of control remaining
55 | CCc1nnsc1C(=O)N1CCc2[nH]c3c(C)cccc3c2C1 [CBK281655] | 94.9329
56 | O=S(=O)(c1c(Cl)cc(C(F)(F)F)cc1Cl)N1CCOCC1 [CBK057736] | 111.84
57 | COc1cncc(-c2cnc3[nH]c(=O)n([C@H](CO)C(C)C)c3n2)c1 [CBK064977] | 105.738
58 | Cc1ccc(C2C(C(=O)c3ccc(Cl)cc3)=C(O)C(=O)N2CCCN2CCOCC2)o1 (centres unmarked) [CBK264514] | 99.1712
59 | COc1coc(CN2C(=O)COc3cccnc32)cc1=O [CBK307126] | 82.9207
60 | Nc1nnc(C2CCCCC2)s1 [CBK039123] | 74.0634
61 | COCCCNS(=O)(=O)c1ccc(-n2ncc(Cl)c(Cl)c2=O)cc1 [CBK305039] | 0
62 | CC(C)c1ccc(S(=O)(=O)NCc2c(F)ccc(Cl)c2F)cc1 [CBK043484] | 80.9681
63 | Cc1cc2ccccc2n2c(=O)n(CC(=O)NC3CCCC3)nc12 [CBK283884] | 76.9277
64 | CN1CCC(N2CCN(C(=O)Nc3ccc(Cl)cc3)CC2)CC1 [CBK155899] | 99.2105
65 | Cc1ccc(OC(C)C(=O)N2CCCc3c(cnn3C)C2)cc1 (centres unmarked) [CBK282242] | 99.8112
66 | CC(C)Nc1nc2ccccc2nc1OCc1ccsc1 [CBK115660] | 103.189
67 | O=C([C@H]1C[C@@H](O)[C@H](O)[C@@H]2N=C(Nc3ccc4c(c3)OCO4)S[C@@H]21)N1CCCCC1 [CBK288953] | 116.94
68 | Nc1c(C(=O)NCC2CCCO2)c2nc3ccccc3nc2n1C1CCCC1 (centres unmarked) [CBK269217] | 54.4439
69 | Cc1ccc(C)c(C(NC(=O)CCCn2ccnc2)c2ccncc2)c1 (centres unmarked) [CBK281476] | 105.614
70 | COc1cc(C(=O)N2CCC3(CC2)CC(=O)c2cc(-c4cccnc4)ccc2O3)cc(OC)c1C [CBK169606] | 85.6567
71 | CC[C@H](Cn1nc(-c2cccs2)ccc1=O)NC(=O)C1CCC1 [CBK284295] | 77.7741
72 | CCOC(=O)c1cnn(-c2ccccc2)c1NS(=O)(=O)c1cccc(Cl)c1C [CBK024055] | 90.3676
73 | COc1ccc(-c2ccccc2)cc1CN(Cc1ccc2c(c1)OCO2)CC(C)O (centres unmarked) [CBK286471] | 87.1737
74 | CC(=O)Nc1ccc(CNC(=O)c2cc(C)n(CC(F)(F)F)c2C)cc1 [CBK304523] | 85.6025
75 | COc1cc(CNc2nccnc2-c2ccc(F)cc2)cc(OC)c1OC [CBK037328] | 99.0072
76 | O=C(CCCN1C(=O)/C(=C\c2cccs2)SC1=S)Nc1cccc(C(=O)O)c1 [CBK263636] | 96.7722
77 | Cn1ncc(Cl)c1C1CCCCCN1C(=O)c1cc(C2CC2)on1 (centres unmarked) [CBK284973] | 105.162
78 | CN1CCN(c2nc(NS(=O)(=O)c3ccc(C#N)cc3)cc3ccccc23)CC1 [CBK002977C] | 104.744
79 | O=C(Nc1cc2ccccc2c(Br)n1)C(F)(F)F [CBK063301] | 66.5524
80 | Cc1cc(/C=C(\C#N)c2nc3ccccc3[nH]2)c(C)n1-c1ccc(C(=O)O)cc1 [CBK267262] | 114.2
